For seven molecules, binding results are on record in paper PMC11341029 (PLOS Pathogens, 2024).

Protein sequences, listed by entry. Tags and fused reporters are not part of them. Residues count along the entry.
UniProt Q05320, residues 33-676: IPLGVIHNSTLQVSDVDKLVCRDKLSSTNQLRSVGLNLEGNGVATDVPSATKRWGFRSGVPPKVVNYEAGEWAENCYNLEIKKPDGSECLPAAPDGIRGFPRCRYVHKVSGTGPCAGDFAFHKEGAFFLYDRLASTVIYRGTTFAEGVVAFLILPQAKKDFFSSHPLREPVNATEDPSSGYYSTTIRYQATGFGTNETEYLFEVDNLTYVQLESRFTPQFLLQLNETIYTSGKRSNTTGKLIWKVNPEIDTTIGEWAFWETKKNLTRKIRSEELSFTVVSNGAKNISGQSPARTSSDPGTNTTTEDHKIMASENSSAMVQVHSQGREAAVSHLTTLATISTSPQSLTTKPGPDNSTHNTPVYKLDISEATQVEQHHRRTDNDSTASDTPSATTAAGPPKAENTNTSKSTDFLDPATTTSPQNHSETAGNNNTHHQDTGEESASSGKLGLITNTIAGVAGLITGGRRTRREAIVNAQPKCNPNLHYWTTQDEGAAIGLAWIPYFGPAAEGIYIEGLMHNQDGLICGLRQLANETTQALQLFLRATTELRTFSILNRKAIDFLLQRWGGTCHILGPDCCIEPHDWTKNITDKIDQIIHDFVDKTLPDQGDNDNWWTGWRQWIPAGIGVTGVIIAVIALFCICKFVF

Results are given in words; binding and its absence hold for the method and conditions named. For some of these results: In cells and extracts the contact can be indirect. Some binding calls cover weakened binding; strength is not graded here. Tags and fused reporters may be left off the sequences shown.

One assay addresses T1, SLC39A9-Flag (UniProt Q9NUM3).
T1 sequence: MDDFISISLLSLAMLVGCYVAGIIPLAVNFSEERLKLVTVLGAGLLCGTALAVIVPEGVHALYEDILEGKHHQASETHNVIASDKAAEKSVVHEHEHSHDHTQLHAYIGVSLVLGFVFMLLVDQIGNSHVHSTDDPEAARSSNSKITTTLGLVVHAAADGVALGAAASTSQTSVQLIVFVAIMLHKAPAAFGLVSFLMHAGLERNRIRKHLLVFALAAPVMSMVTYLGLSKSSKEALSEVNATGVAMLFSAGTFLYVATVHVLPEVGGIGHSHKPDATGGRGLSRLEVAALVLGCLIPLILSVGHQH
As to the kind of experiment: co-IP.

For another assay, the target named is T2, SLC39A9-HA (UniProt Q9NUM3).
T2 sequence: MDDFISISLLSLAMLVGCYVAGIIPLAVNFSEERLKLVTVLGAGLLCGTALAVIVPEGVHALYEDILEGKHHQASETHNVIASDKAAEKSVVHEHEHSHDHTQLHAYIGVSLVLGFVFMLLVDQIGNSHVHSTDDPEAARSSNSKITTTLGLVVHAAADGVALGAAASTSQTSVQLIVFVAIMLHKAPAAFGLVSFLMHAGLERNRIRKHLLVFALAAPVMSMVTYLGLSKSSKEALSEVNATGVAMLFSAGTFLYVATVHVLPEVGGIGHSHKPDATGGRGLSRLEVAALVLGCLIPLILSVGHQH
The assay can be described thus: co-IP.

Another assay has as its target NPC1-Flag (human) (UniProt O15118). As to the kind of experiment: co-IP.
The next assay addresses T3, NPC1-10×His-Flag (human, UniProt O15118 23-1278).
T3 construct: also called purified NPC1-Flag; full-length NPC1 protein
T3 sequence (looked up): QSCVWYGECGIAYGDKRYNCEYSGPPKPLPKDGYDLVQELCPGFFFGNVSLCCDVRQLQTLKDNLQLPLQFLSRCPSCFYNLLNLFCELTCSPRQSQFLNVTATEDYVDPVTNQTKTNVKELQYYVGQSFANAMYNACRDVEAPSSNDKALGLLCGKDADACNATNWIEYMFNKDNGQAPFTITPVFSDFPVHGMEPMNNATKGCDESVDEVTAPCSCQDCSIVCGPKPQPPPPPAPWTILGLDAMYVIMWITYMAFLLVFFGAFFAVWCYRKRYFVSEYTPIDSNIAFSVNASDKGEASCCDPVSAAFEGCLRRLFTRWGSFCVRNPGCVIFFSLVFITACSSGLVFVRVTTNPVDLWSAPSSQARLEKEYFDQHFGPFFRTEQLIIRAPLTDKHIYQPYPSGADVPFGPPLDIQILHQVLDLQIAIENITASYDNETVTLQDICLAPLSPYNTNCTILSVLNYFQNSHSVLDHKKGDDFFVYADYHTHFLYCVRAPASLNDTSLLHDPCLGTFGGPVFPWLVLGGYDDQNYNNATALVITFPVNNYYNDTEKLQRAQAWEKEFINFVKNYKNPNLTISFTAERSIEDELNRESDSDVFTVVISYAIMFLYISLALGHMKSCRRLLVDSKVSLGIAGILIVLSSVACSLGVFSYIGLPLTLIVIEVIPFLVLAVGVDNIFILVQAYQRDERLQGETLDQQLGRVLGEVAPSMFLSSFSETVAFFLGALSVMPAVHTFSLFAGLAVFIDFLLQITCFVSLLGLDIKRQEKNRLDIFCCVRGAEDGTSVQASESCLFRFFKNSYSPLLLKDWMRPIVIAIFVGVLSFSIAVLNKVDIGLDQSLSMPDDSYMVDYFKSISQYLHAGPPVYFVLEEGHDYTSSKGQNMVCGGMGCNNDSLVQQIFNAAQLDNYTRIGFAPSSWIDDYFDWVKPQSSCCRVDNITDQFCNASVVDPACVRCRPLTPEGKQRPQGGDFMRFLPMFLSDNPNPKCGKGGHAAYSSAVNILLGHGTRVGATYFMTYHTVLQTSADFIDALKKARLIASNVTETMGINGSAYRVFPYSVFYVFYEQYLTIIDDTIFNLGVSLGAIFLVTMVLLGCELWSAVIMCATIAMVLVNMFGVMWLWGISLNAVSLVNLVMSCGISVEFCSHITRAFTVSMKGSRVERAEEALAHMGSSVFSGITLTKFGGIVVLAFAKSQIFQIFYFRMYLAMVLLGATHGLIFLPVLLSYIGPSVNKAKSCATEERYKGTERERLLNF
As to the kind of experiment: pull-down; both purified.

For EBOV GP-HA (from UniProt Q05320), the binding entry with SLC39A9-Flag is “binds”. As for “NPC1-NTD-MLD-Flag (1-800aa) (from UniProt O15118 23-800) (domain or fragment)”, the binding result with SLC39A9-HA is listed as “no binding”. On the same count and under the same terms, to “NPC1-NTD-Flag (1-350aa) (from UniProt O15118 23-350) (domain or fragment)” belongs “no binding”; to “NPC1-CTD-Flag (800-1278aa) (from UniProt O15118 800-1278) (domain or fragment)”, “binds”; to “NPC1-Flag (from UniProt O15118 23-1278) (receptor)”, “binds”.

B1: SLC39A9-HA (protein, UniProt Q9NUM3 1-307)
chain: MDDFISISLLSLAMLVGCYVAGIIPLAVNFSEERLKLVTVLGAGLLCGTALAVIVPEGVHALYEDILEGKHHQASETHNVIASDKAAEKSVVHEHEHSHDHTQLHAYIGVSLVLGFVFMLLVDQIGNSHVHSTDDPEAARSSNSKITTTLGLVVHAAADGVALGAAASTSQTSVQLIVFVAIMLHKAPAAFGLVSFLMHAGLERNRIRKHLLVFALAAPVMSMVTYLGLSKSSKEALSEVNATGVAMLFSAGTFLYVATVHVLPEVGGIGHSHKPDATGGRGLSRLEVAALVLGCLIPLILSVGHQH
For the molecule B1, the binding entry with NPC1-Flag (human) is given as “binds”.

B2: SLC39A9-6×His-2×Strep (protein, UniProt Q9NUM3 1-307)
chain: MDDFISISLLSLAMLVGCYVAGIIPLAVNFSEERLKLVTVLGAGLLCGTALAVIVPEGVHALYEDILEGKHHQASETHNVIASDKAAEKSVVHEHEHSHDHTQLHAYIGVSLVLGFVFMLLVDQIGNSHVHSTDDPEAARSSNSKITTTLGLVVHAAADGVALGAAASTSQTSVQLIVFVAIMLHKAPAAFGLVSFLMHAGLERNRIRKHLLVFALAAPVMSMVTYLGLSKSSKEALSEVNATGVAMLFSAGTFLYVATVHVLPEVGGIGHSHKPDATGGRGLSRLEVAALVLGCLIPLILSVGHQH
With B2, the binding entry with NPC1-10×His-Flag is recorded as “binds”.
